Measured values from PubChem BioAssay AID1645887 (National Center for Advancing Translational Sciences (NCATS), 2021).
Several values for one entry are separate records, joined by “and”; a condition that tells them apart may be missing. Identical values can stand only once. The campaign covered roughly 16,000 compounds. About 40 (0.2%) were called active. Another 1% or so got no clear call; they are omitted. Calls follow the shape of the dose curve; as a rule, active = well fitted activation curve with a large enough effect; inconclusive = small, poorly fitted or top-dose-only effect, or another doubt; inactive = no such curve, though single readings can be large or run the other way. This is one part of the list.

These molecules were tested against Rap guanine nucleotide exchange factor 4 (Homo sapiens) (UniProt Q8WZA2) (assay: Validation qHTS for agonist of cAMP-regulated guanine nucleotide exchange factor 4 (EPAC2)). Settings: EPAC2 Rap1B BODIPY-GDP exchange, fluorescence; activation: active compounds read high.
Sequence of UniProt Q8WZA2 (Q8WZA2 whole entry, looked up): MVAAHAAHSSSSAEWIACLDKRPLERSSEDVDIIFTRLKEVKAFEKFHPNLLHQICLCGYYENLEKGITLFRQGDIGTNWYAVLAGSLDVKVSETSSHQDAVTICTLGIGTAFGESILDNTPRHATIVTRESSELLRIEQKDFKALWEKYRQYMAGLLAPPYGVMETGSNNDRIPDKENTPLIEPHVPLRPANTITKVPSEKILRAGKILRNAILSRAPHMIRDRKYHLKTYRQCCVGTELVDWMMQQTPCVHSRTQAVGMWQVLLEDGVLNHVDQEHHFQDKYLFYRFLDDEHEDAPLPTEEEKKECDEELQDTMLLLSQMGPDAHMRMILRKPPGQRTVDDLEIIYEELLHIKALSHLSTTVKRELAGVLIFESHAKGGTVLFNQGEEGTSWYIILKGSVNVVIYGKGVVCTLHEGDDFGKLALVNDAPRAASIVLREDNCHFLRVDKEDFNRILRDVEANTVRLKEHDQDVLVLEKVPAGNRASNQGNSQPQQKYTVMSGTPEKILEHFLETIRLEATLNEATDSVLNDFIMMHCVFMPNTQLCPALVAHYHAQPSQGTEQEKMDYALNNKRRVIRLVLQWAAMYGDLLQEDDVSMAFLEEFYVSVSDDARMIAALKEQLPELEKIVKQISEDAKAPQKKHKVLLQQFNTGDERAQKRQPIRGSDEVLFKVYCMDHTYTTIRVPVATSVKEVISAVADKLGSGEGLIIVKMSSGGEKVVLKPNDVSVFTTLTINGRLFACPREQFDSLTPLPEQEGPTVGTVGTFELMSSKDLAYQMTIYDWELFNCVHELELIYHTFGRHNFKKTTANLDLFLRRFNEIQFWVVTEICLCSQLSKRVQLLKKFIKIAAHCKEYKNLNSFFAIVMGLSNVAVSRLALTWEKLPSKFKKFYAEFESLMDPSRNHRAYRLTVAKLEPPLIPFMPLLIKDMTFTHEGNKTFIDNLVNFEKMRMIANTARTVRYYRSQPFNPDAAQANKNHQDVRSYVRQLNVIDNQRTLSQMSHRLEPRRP
Outline: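 Fluorescent exchange assay: 100 nM EPAC2 with 250 nM RAP1B-BODIPY-GDP and 50 uM GDP; compound added, 5 min at room temperature, then read (ex 480/em 540 nm) every 5 min for 30 min. Normalized to 6.5 mM cAMP agonist control.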
% is scaled to controls: 0 for no effect and ±100 for the full control effect.
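Also: exchange makes BODIPY-GDP fluorescence drop when released from Rap1B; series mostly up to about 150 µM.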

activation, inactive:
O=C(Nc1cccc(F)c1)N1CCCC2(CCN(C(=O)c3cccc(F)c3)CC2)C1 -4.4%
COc1ccc(-c2nc3cnc(OC)nc3n(C[C@H]3CCCO3)c2=O)cc1 -6.48%
Cc1ccnc2cc(Cl)cc(Cl)c12 -1.99%
CCCCCCCCCCCCCCCC(=O)O[C@H]1[C@@H](O)[C@@H](O)[C@@H]([C@H](NC(=O)[C@@H]2C[C@@H](CCC)CN2C)[C@H](C)Cl)O[C@@H]1SC -51.3%
CC(=O)Oc1ccc2c(c1OC(C)=O)OCC1(O)Cc3c(cc(OC(C)=O)c(OC(C)=O)c3OC(C)=O)C21 (stereo not drawn) -2.49%
O=C(c1ccncc1)N1CCC[C@@]2(CCN(Cc3ccccc3)C2)C1 5.24%
Cc1nnc(C(=O)NC(C)(C)c2nc(C(=O)NCc3ccc(F)cc3)c(O)c(=O)n2C)o1 -0.147%
CC(=O)NCCNc1ncnc2ccc(-c3ccccc3C#N)cc12 -7.88%
COc1ccccc1-c1ccc2ncnc(N3CCOCC3)c2c1 -5.42%
CN1C2CCC1CC(OC(=O)c1c[nH]c3ccccc13)C2 (stereo not drawn) -37.1%
O=C(Cn1cc2ccccc2n1)N1CCOc2ccc(C(O)C3CCCCC3)cc2C1 (stereo not drawn) -36.5%
Cc1ccccc1OCC(O)CNCCOc1ccc(C(N)=O)cc1 (stereo not drawn) 6.08%
O=C(NCCc1nnc2n1CCN(Cc1c(F)cccc1F)CC2)c1ccc(F)cc1 2.68%
CC(C)NC[C@H](O)c1ccc2ccccc2c1 -4.19%
c1ncc(-c2ccc3c(c2)OCO3)c(NCCc2cnc[nH]2)n1 -19.7%
NC(=NC1C2CC3CC(C2)CC1C3)Nc1ccc(I)cc1 (stereo not drawn) -20.4% and -0.594% and -2.71%
CN1CCN(C2=Nc3ccccc3Oc3ccc(Cl)cc32)CC1 -8.12% and -5.4% and -53.6%
Cc1ncc2c(c1CNS(=O)(=O)N(C)C)CCN(C(=O)/C=C/c1cccc(F)c1)C2 -4.96%
COc1ccc(NC(=O)N2CCC3(CC2)CCN(C(=O)c2ccncc2)CC3)cc1 -35.9%
COc1c2occc2cc2ccc(=O)oc12 -8.12% and -2.67% and 13.2%
CC1=CC[C@@]2(CO)COC(c3ccccc3O)C1C2 (stereo partly drawn) -0.406%
CC(C)CN1CCC2(CC1)CCN(C(=O)c1ccncc1)CC2 -19.7%
O=C(NN1CCCC1)NS(=O)(=O)c1ccc(Cl)cc1 -5.84%
